Test results as given in PubChem BioAssay AID1454 (National Center for Advancing Translational Sciences (NCATS), 2008).
Hit rate of the full screen: of about 130,000 compounds, about 550 (0.42%) were called active. Inconclusive results, whose numbers are uncertain, are shown with a selection of clear calls. Calls come from the whole dose curve; as a rule, active = well fitted inhibition curve with a large enough effect; inconclusive = small, poorly fitted or top-dose-only effect, or effect the other way; inactive = flat fitted curve, though single readings scatter. No potency is given beside an inconclusive call; the fits are too rough.

Assay: qHTS Assay for Inhibitors of the ERK Signaling Pathway using a Homogeneous Screening Assay; Stimulation with EGF; note: nearly all actives have a fitted effect of over 55% in size
Conditions: HEK293-V1b, EGF-stimulated phospho-ERK AlphaScreen
In short: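 Phospho-ERK1/2 measured by AlphaScreen (SureFire) after 5 min 25 nM EGF stimulation of V1b-expressing HEK293 cells preincubated 30 min at 37C with titrated compounds; data scaled to DMSO and EGF controls, Hill-fitted AC50.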
Potency is the fitted concentration of half-maximal effect; tags give direction and shape of the fitted curve.

Compound | Potency
CC(C)N(C(=O)CSc1nnc(CSc2ncccn2)n1C)C(C)C | inconclusive [inhibitor, partial curve]
O=C(Nc1cccc(Cl)c1)c1ccc(F)c(S(=O)(=O)NCc2cccs2)c1 | inconclusive [inhibitor, single point]
O=C(NNc1cc(Br)c(O)c(Br)c1)c1ccccc1 | inconclusive [inhibitor, partial curve]
COc1ccc(C2CC(c3cccs3)=NN2c2ccc(F)cc2)cc1OC (centres undefined) | inconclusive [activator, partial curve]
S=C(NNc1ccc2ccccc2c1)NC1CCCCC1 | inconclusive [inhibitor, partial curve, poor fit]
O=C(NCc1cccnc1)c1ccc(COc2ccccc2Br)cc1 | inconclusive [inhibitor, single point]
CCCCC(=O)N(Cc1ccc(-c2ccccc2-c2nn[nH]n2)cc1)C(C(=O)O)C(C)C (centres undefined) | inactive
CCOc1ccc(Nc2ncnc3ccc([N+](=O)[O-])cc23)cc1 | inactive
COc1cccc(NC(=S)N(CCCN2CCOCC2)Cc2cn(C)c3ccccc23)c1 | inactive
NCCC[C@@H](CC(=O)N[C@@H]1CCCC[C@H]1C(=O)N[C@H](CC(=O)N[C@@H](CCC(=O)O)CC(=O)O)Cc1ccccc1)NC(=O)C[C@H](Cc1ccccc1)NC(=O)[C@@H]1CNCC[C@H]1N | inactive
Cc1ccc(NC(=O)CSc2ncnc3ccccc23)cc1S(=O)(=O)N1CCOCC1 | inconclusive [inhibitor, single point]
Oc1c(/C=C/C=C/C=Nc2ccccc2)sc(=S)n1Cc1ccccc1 | inconclusive [inhibitor, full curve, poor fit]
CCOC(=O)NCCOC(=O)Nc1ccc(Cl)cc1 | inactive
COc1ccc(C)c2sc(NNC(=O)COc3ccccc3)nc12 | inactive
Cc1ccc(CN2CCN(Cc3nc(C(C)C)cs3)CC2CCO)cc1 (centres undefined) | inconclusive [inhibitor, single point]
Cc1cc2ccccn2c1C(=O)c1ccc([N+](=O)[O-])o1 | active: 17.8 µM
COC(=O)c1ccc(-n2c(C)cc(C(=O)COC(=O)CNS(=O)(=O)c3ccc(C)cc3)c2C)cc1 | inconclusive [inhibitor, partial curve]
CN(Cc1cccnc1)Cc1c(C(=O)N2CCc3ccccc3C2)nc2ccc(Cl)cn12 | inconclusive [inhibitor, partial curve]
CSc1c(C#N)sc(=S)n1-c1ccc(C)cc1 | inconclusive [inhibitor, single point]
